# Measured values published in PubChem BioAssay AID504897 (Southern Research Specialized Biocontainment Screening …, 2011).
# For part of its entries the source gives two or more results. Only these are listed. An entry can have further records. Results that share an entry are repeats across runs, samples, wells, individuals or studies. A tag in brackets gives the origin of a value. Letters count within one entry.
# Test system: Mycobacterium tuberculosis H37Rv growth inhibition, 7H9 medium
# Assay: M. tuberculosis growth inhibition, dose response, H37Rv, 7H9 media, purified and synthesized compounds, set 6 (AID 504897)
smiles,measurement,setting,value
O=C(CSc1nc2ccccc2c(=O)[nH]1)NC1CCCCC1,IC90,,372 nM [sample A] and 33 nM [sample B]
same,IC50,measured here: IC50 of Mtb growth inhibition,141 nM [sample A] and 1 nM [sample B]
